T1: UNK ZnF1-3 (human, UniProt Q9C0B0 31-174)
T1 sequence: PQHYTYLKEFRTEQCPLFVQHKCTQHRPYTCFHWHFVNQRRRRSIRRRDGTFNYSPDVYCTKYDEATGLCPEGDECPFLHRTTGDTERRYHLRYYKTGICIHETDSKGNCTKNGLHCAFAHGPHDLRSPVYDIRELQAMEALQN

B1: 87783043_87783163_4856_CDS_ENSMUSG00000004891_ENSMUST00000090973|mouse|control|control (ssRNA)
RNA: GGGAGUUCUACAGUCCGACGAUCCUCUGGUGGGUCACUGAGACCCUGGGCAGCCAGGGCAGCAGGACUCCAGCCUUCCUUCCUGGCCUCCCCUUGAGGGAAAAGCCUCUGUUCUCCAGCUUGCUCCCACUUUGGGGAGGCAGGCAACAGAGGAUUGAGCAUCA
B2: chr4:95690885:95690886:+_ENSMUSG00000028572_ENSMUST00000156910|mus_mus|mus_mus_mus_hu_False|28_98 (ssRNA)
RNA: GGGAGUUCUACAGUCCGACGAUCUUUAGAAAAUGUUAAUGUUAAAUCUAAAAUAUUUUCAAAGGCUUAUUUUAUUUUACCAGAAGUCACAGGCAAGCAGACACUACAAACAUACAAGAAAAUGAAACUCAACAAUAUAACUGUCAACAGAGGAUUGAGCAUCA
B3: 180006062_180006182_4426_CDS_ENSG00000135837_ENST00000367607|human|control|control (ssRNA)
RNA: GGGAGUUCUACAGUCCGACGAUCUGAAAUGCCUCUAACUCUUUCUACAUCUGACAGUUGGCGCACCGACUCCUCAAUGGCGUUCAGAUAACUGAGUUCUGCUGCCAUACGAUGAUGGAGGCCAGCAGGAGAAAAGCGCUUAGACAACAGAGGAUUGAGCAUCA
B4: 160792165_160792285_4860_CDS_ENSMUSG00000057133_ENSMUST00000039782|mouse|control|control (ssRNA)
RNA: GGGAGUUCUACAGUCCGACGAUCGUCAGUUCUUUUGUGUUGGGCAUAGUUUCUAUAGGCAUCUAGGAAGGAUAGCUGGGGGUCAUUCAUGAUGUAAUAGUCAGUGCGGUUGAGCCCAUGUUUGGCGGUGCCAAUGAGCAGGUCCAACAGAGGAUUGAGCAUCA
B5: 64968284_64968404_3155_CDS_ENSG00000171988_ENST00000542921|human|control|control (ssRNA)
RNA: GGGAGUUCUACAGUCCGACGAUCAUUCUCUCUCUCACCCUCAAGUCCCUUGAUUUUAGUUGUAAAGGGAGCAACAUCAAUACUUUCUUGAAGAAUUCGACGGUGUUCCUCUUUGUAUUUGUUUAACCUCUCUCCAGUCUCCUGCAACAGAGGAUUGAGCAUCA
B6: chr1:25669491:25669492:+_ENSG00000183726_ENST00000374358|perfect_dup|FALSE|FALSE (ssRNA)
RNA: GGGAGUUCUACAGUCCGACGAUCACAGGCAUGGUAUGAGUGGUUGAAAUCUUUCAUGGUGGGAUAAAUAACAGCUGCAUCUAUGAUAAUCCACCAGCCUGUAAAAAAUAGUACACCAGCAGCAAUGGAAGCAAUAGUAUUGCGCAACAGAGGAUUGAGCAUCA
B7: 68315663_68321657_857_CDS_ENSG00000110075_ENST00000393800|human|control|control (ssRNA)
RNA: GGGAGUUCUACAGUCCGACGAUCCAGGCGAACAAUUUCACAAAGUGAUUGUGAUGCAUUUGAAUGUCGAUCUUCUUCUUGCGAUGGAUGAACUAUUUCCACAAGCCUCUGGAUAAUUUUCUCCUCAUUUAACCAAUUCAGCACCAACAGAGGAUUGAGCAUCA
B8: chr16:11201500:11201501:-_ENSMUSG00000005846_ENSMUST00000119953|perfect_dup|FALSE|FALSE (ssRNA)
RNA: GGGAGUUCUACAGUCCGACGAUCGUUGAAUUGGGUUCAUCCUUCGUAAAUAAACAGAUAUCUUCUGAAUCUGAUCGAAUACUAUGAGGCAAGGUCCUGUUCUUUAUCCAGCUGCUUCCGUGCUGUCGGGGCCGCUGGAGUCGACAACAGAGGAUUGAGCAUCA
B9: 235949563_235949683_614_CDS_ENSG00000130147_ENST00000392011|human|control|control (ssRNA)
RNA: GGGAGUUCUACAGUCCGACGAUCACCGCCAGAUGUGUCCAAGACGUAGAGAUGGUCGCCCUUGGAGAACUUCAGUGUGGUGAAGUUGGUGGGGCAAUAGUCCUUGAUCGCAAUCACUUCCUUUGCAUUUCCGAAAGGUGUGGGCAACAGAGGAUUGAGCAUCA
B10: chr11:130013608:130013609:+_ENSG00000084234_ENST00000528499|hu_hu|FALSE|FALSE (ssRNA)
RNA: GGGAGUUCUACAGUCCGACGAUCAGCAUGUGUCAGACAAUACAAUGGAAGUGGGGUUUCUGAUUAAUUUAAAAAAGAAAACUACAUCAAAUAUCUGCAAUAGAUCAUUUUUUUCAUUUAAGGUUUAUAUAUCAUAUAUUGUUACAACAGAGGAUUGAGCAUCA
B11: chr4:118896860:118896861:-_ENSMUSG00000078584_ENSMUST00000141112|mus_mus|FALSE|FALSE (ssRNA)
RNA: GGGAGUUCUACAGUCCGACGAUCCCGAGUGCUGGGAUUAAAGGCGUGCACUACCACUGCCCGGCUUGACACUUCUUAUACCCAAAAUUGGUUACUUUCUCUGUCUCAUUAUGACAAGGAUCUCUGUCUUGUGCUCUCUGUGCUCAACAGAGGAUUGAGCAUCA
B12: chr11:103733960:103733961:-_ENSMUSG00000034187_ENSMUST00000103075|mus_mus|FALSE|FALSE (ssRNA)
RNA: GGGAGUUCUACAGUCCGACGAUCCAUUUUAACUUCCAGUCUUCCGGGUCGAAGGAGAGCUUCGUCUAUCAAAUCUGGUCUAUUGGUCAUUCCGAUAACGAGGAUGUUGUUCAGCUGCUCAACGCCAUCGAUCUUGGACAGCAGCAACAGAGGAUUGAGCAUCA
B13: 111932888_111933355_639_CDS_ENSMUSG00000021270_ENSMUST00000094361|mouse|control|control (ssRNA)
RNA: GGGAGUUCUACAGUCCGACGAUCCUUUGUUCCACGACCCAUUGGUUCACCUGUGUCAGUCCUCACUGUGAAGGAUCCCCCAGCUGAGGACUCCCAGGCAUACUGCUCAUCGUCGUUAUGCUUCGUGAUGACAGUCACUUUCUCCAACAGAGGAUUGAGCAUCA
B14: 97424854_97425602_1988_CDS_ENSMUSG00000021670_ENSMUST00000022176|mouse|control|control (ssRNA)
RNA: GGGAGUUCUACAGUCCGACGAUCGAGUUUCUGUAGACGAGCAAAUCUGCUGGUGCUAUCAAAGGCCUCCUUUAUCACUGCAAACCCUUCAGGUGUUUCAAGCCAGGUCUUUACUUCUGCAGAGUCACAAGCACGUGGAAGACGCAACAGAGGAUUGAGCAUCA
B15: chr14:102359341:102359342:+_ENSG00000078304_ENST00000445439|hu_mus|FALSE|FALSE (ssRNA)
RNA: GGGAGUUCUACAGUCCGACGAUCCUUCAGUGGUAAGGCAAAUCCAUUAAUUAUACUUCCCAGGAUCUCCAGUAACUCCGCUAUGCCAUUGUGAUGCUCUGUCUCAUAGAUAAACCUAUAAAAUAUAUUAUUGAUCUGUUUCCUCAACAGAGGAUUGAGCAUCA
B16: 125852589_125860064_2747_CDS_ENSG00000011454_ENST00000373647|human|control|control (ssRNA)
RNA: GGGAGUUCUACAGUCCGACGAUCGGUCAUCAGCAGCUCCUUAUUCAGAGCAUCUGCCUUUUCCUCAGCGUUAUCCAGGUCCUUCCGUAGUGCAAUCUUGCUGGUCACCAGCUCAUGGGCUAAGUCAUCGUUUUCCUGUUCCAACAACAGAGGAUUGAGCAUCA
B17: 16165095_16168310_1563_CDS_ENSG00000169762_ENST00000405303|human|control|control (ssRNA)
RNA: GGGAGUUCUACAGUCCGACGAUCAUUUUCCUUUUGAUGAAUAGGUUGUUUGGUGAUGGAGGCAGACAGGUUUUCUUCUGUGGAAAGGCCUUGAGAGGGUUUACAUUUGUUCUGUGAUUUACUGGACGGCUUGCCUGGAGUGCACAACAGAGGAUUGAGCAUCA
B18: chr2:31148548:31148549:+_ENSMUSG00000062661_ENSMUST00000000199|mus_hu|FALSE|FALSE (ssRNA)
RNA: GGGAGUUCUACAGUCCGACGAUCCUGGAGGGAACAGUGCAUUAGCCAUUUAGGAAUUUCCACCUCUCCCCUCUCCAAAAAUCAAGCACAGUAUCUGAAAAAAAAAAAAUUUUUUUUGGCUUCUUGGCCGCUGCAGGCCACCAUCAACAGAGGAUUGAGCAUCA
B19: chr6:114270206:114270207:-_ENSG00000196591_ENST00000368632|hu_hu|motif|central (ssRNA)
RNA: GGGAGUUCUACAGUCCGACGAUCUACAACUUCUACACAUUUAGCAUGACCUUUGACUGUUAGAUUGAAACAACCCAGUCGGUCACCAGAUAAUGAGUCUGCACCACACUGUAAUACCACAGCACUAGGUUGAUACAUCUCCAUCAACAGAGGAUUGAGCAUCA
B20: 27447925_27448045_1656_CDS_ENSG00000084774_ENST00000264705|human|control|control (ssRNA)
RNA: GGGAGUUCUACAGUCCGACGAUCAAAGGCCCGUCGAUCCUCGGUCAGCUCAAUGGUCUCCACUGGUGUGCCCAGGACCCGGACCCCAUACCGAGCCAGCACCCCGGCCUUGGUCAGCUCCACACCACAGUUCAGAGCAGUCUGCAACAGAGGAUUGAGCAUCA
B21: chr5:136386232:136386233:-_ENSMUSG00000051391_ENSMUST00000055808|mus_mus|motif|central (ssRNA)
RNA: GGGAGUUCUACAGUCCGACGAUCAAACUGAGAACCCAUGGCUUGGCGUCAUGUAUGGCUGUCAUGUAUAAAUACUGUAAACGGCAAUUGAGUGUUAAUACUGUCAACCCGUCAGAGACUUCCAAAUACAGGGCCACGUCUAACCAACAGAGGAUUGAGCAUCA
B22: 69154069_69154189_1013_3pUTR_ENSG00000144746_ENST00000273258|human|control|control (ssRNA)
RNA: GGGAGUUCUACAGUCCGACGAUCUGUCAUCUACUUUAACAGCCUUUUCAUUUACUCGUAUUGUCUUGAUACUUUACAAUGAUUUUUUUUUUCCUAUAAGAUAAUCGUAUUGUUGCUGUAAAAGCCGUAAUUCUUUUAUUUUUUCAACAGAGGAUUGAGCAUCA

Some of the results follow.

In this assay the target is T1, UNK ZnF1-3. Nature of the assay: nsRBNS (natural sequence RNA bind-n-seq); RBNS binding buffer (assumed for nsRBNS): 25 mM Tris pH 7.5, 150 mM KCl, 3 mM MgCl2, 0.01% Triton X-100, 500 ug/ml BSA, 20 U/ml SUPERase-In, 4 C; UNK is unkempt and MSI1 is Musashi-1; names of the RNAs are library labels; protein concentration not given here; high values mean tight binding.
As to B1, the binding signal amounted to 0.208 enrichment R.

The molecule B2 registered a binding signal of 2.3 enrichment R.

For the molecule B3, the binding signal was 1.23 enrichment R.

Turning to B4, the binding signal came out at 1 enrichment R.

For the molecule B5, the binding signal came to 0.62 enrichment R.

B6 came in with a binding signal of 2.1 enrichment R.

B7 had a binding signal of 0.865 enrichment R.

Regarding B8, the binding signal was determined as 0.377 enrichment R.

With B9, the binding signal is 0.68 enrichment R.

For B10, the binding signal stood at 2.84 enrichment R.

In the case of B11, the binding signal amounted to 0.673 enrichment R.

B12: the binding signal amounted to 1.24 enrichment R.

As for B13, the binding signal was determined as 0.348 enrichment R.

Regarding B14, the binding signal worked out at 0.995 enrichment R.

Consider B15, for which the binding signal came to 1.43 enrichment R.

For B16, the binding signal is 0.723 enrichment R.

As to B17, the binding signal turned out to be 0.74 enrichment R.

In the case of B18, the binding signal is 1.31 enrichment R.

As to B19, the binding signal stood at 0.904 enrichment R.

B20 returned a binding signal of 0.81 enrichment R.

Take B21: the binding signal was 1.29 enrichment R.

With B22, the binding signal stood at 0.328 enrichment R.

The values above are taken from PMC12136788.
